In the supplement of paper PMC3334620:
In all, about 33,000 sequences were measured (“E-score (-0.5 to 0.5)”: median about -0.012, highest 2% from about 0.29 on). The list shows a part of the results.

Target: T1, Ybr033w (UniProt P38073)
T1 sequence: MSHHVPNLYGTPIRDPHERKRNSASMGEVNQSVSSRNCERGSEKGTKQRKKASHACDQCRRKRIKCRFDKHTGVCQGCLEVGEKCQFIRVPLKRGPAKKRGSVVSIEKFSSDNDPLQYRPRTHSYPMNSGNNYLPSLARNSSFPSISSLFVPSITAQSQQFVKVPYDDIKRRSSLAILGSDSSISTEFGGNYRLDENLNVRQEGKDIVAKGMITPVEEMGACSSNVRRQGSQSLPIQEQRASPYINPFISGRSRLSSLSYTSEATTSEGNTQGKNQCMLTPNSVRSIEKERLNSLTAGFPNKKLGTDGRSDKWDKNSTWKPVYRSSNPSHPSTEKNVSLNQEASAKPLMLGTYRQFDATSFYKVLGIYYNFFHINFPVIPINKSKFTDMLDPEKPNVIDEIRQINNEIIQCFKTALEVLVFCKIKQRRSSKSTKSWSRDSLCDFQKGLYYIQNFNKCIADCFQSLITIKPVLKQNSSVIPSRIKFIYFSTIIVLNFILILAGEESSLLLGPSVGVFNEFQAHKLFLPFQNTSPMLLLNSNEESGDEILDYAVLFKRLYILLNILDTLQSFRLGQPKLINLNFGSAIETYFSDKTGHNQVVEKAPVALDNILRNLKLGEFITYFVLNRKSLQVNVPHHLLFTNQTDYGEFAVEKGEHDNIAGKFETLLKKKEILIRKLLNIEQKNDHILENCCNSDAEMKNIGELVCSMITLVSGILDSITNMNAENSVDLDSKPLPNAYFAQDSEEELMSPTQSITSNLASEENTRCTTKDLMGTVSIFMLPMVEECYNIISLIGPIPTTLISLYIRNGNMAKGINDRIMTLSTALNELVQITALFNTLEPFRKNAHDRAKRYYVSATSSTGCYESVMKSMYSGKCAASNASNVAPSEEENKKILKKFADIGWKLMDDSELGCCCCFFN
Assay: PBM E-score (8-mer binding enrichment) (E-score (-0.5 to 0.5)); higher = stronger / more preferred TF binding; most listed sequences are background and not binding sites
Conditions: protein concentration: 200 nM; construct: GST-full length
Method: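 Universal 'all 10-mer' protein binding microarrays (Agilent AMADID 015681) probed with GST-tagged S. cerevisiae TFs (full-length or DBD) made by in vitro transcription/translation (PURExpress), about 100-200 nM. Bound TF was detected with fluorescent anti-GST. Each ungapped 8-mer (which stands for itself and its reverse complement) is scored by the PBM enrichment score (E-score), a modified Wilcoxon-Mann-Whitney statistic from -0.5 to +0.5, computed with the Universal PBM Analysis Suite. Scale: above 0.35 generally sequence-specific binding.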

Sequence | PBM E-score
GGACCCAC | -0.194
CACGAGCG | -0.244
GACAAAGA | 0.0789
GGCACAAA | -0.103
CAGTGTAA | 0.0746
CTTCTCCC | -0.19
AGTCTCGA | -0.0775
GTCCAGCA | -0.142
CTGATACC | 0.0344
TCGCGTAA | 0.131
CGGCGCTC | -0.185
GACTCATA | 0.0307
AGAAATCG | 0.0381
ATAATACG | 0.187
CACTCACG | -0.14
ACATACTG | -0.0193
CAGGCCCG | -0.336
AACGGAAA | 0.241
CGGTGCTC | -0.0954
CGCGAAAA | 0.0499
CTTTTGAA | 0.173
CCTAATCG | 0.0171
CTTGGAGA | 0.006
AAGTCTCA | -0.223
AACGCATC | -0.0699

Sequence | PBM E-score
CTAATGAA | 0.266
AAAGATAG | -0.0366
AGTTAAGC | -0.085
ACTAACAC | 0.0136
GCGGGTCA | -0.109
AGCCGTTA | 0.073
CACCCGCG | 0.0598
CGGGCAGC | -0.187
GCCGCGGA | -0.12
CTAGTCAG | -0.169
GAGACTAA | 0.114
AGATGGTC | -0.132
TATTCCCA | 0.199
CAGAGTCA | -0.194
GGCCCTAA | -0.0545
CGGATCCG | -0.0883
TATAGGGA | -0.00128
CCCCGTTA | -0.184
CAGCCCAG | -0.298
AGGAGGTC | -0.171
AACGCTCT | -0.191
AACTACGG | -0.104
CGATCTTC | -0.0203
GTACTGAC | 0.0973
GCGATTCC | -0.0306

Sequence | PBM E-score
ACATACCT | 0.128
CTTACAAG | -0.0896
AAATTTGA | 0.276
ACCGCAGT | -0.0133
GAGCCCGA | -0.103
ACCGACCC | -0.32
AACCACTG | 0.0233
AAAAGGAC | -0.00479
CCGAACCA | -0.167
TCGGAGCA | -0.128
AAATGCCG | 0.13
AATGATTC | 0.306
CCCTCTAC | -0.314
ACCTGAGA | 0.0174
AGCCCGCA | -0.222
CAAACGGC | -0.146
CCGGCATC | -0.225
AAGCTGAC | -0.0245
CCTGTGAC | -0.118
ATTGAAGG | -0.0954
AGCGTAGC | -0.0434
GAGATTGC | -0.111
GCAGAGTA | -0.0501
CTCCGCCC | -0.16
CCTTCGTC | -0.0862

Sequence | PBM E-score
GAGTATTA | 0.222
AATAGCGG | 0.0696
CGTAATCA | 0.243
CCGCCCCA | -0.0138
AGTGTCTA | 0.107
ACTCCCCA | -0.0256
GTGGCAAC | -0.111
ATGGGTAA | 0.138
CTTACTCC | 0.141
CAACACCG | -0.222
CTATAGTC | -0.0918
AACCGTAT | -0.175
ATTCCTCG | 0.0857
AAGAGTAA | 0.125
ACTTACAA | 0.265
CCTAAGGA | -0.0239
AGGCGACT | -0.205
CCCTATGC | -0.234
ACTTCGGA | 0.261
AGAAAGCG | -0.0188
ACATCTAT | 0.253
CTCCAGAA | -0.0883
CTCGGGGA | -0.153
AAGACATA | 0.168
AACAAGTC | 0.0761

Sequence | PBM E-score
AGCACCCC | -0.353
GGACATAA | 0.0846
AGTGATGA | 0.0446
GTGAGTTA | 0.031
CGCGGGAA | 0.0225
CCGCCGAA | 0.0143
ACCCAGGC | -0.0962
GGAGATCA | -0.082
CAACTGAA | -0.057
ATGGGGCA | -0.292
AGTATTAA | 0.295
CTCGCAAG | -0.0951
CTCGCCCC | -0.265
ATAATAAG | 0.18
TAGTAAGA | 0.0907
AGGCTAAC | -0.0289
CCTCACTC | -0.0615
CGGCGGTC | -0.25
CAACACCC | -0.24
GTGTTGTA | 0.0656
CCACCTTA | -0.0643
CAGTGTCC | -0.191
GTCAGGAA | 0.132
GTAAAATA | 0.269
AACCGGCT | -0.0092

Sequence | PBM E-score
ACGCTGAT | -0.0697
ATAGCTTG | -0.0519
AATGAGCG | 0.128
CGATATCC | -0.00469
ACGGCGTC | -0.256
CGTATAAC | 0.0815
GCGTCCAC | -0.187
AATTGGTG | 0.0971
ATACTGCC | 0.116
CATTTCCA | 0.144
GCTTAAAA | 0.0832
GGTATGGA | -0.143
AACAACCA | 0.272
CTCCATCC | -0.2
CATCACGG | -0.0912
ACGCGTAG | -0.0909
GGATCTAC | -0.00883
ATACAAGA | 0.043
CGATGTAA | 0.147
AACTGACC | -0.187
AAGGTGCT | -0.145
CCCAATGA | -0.126
TCGAAAGA | 0.128
GACTAGGC | -0.179
CTAAGCAC | 0.115

Sequence | PBM E-score
CGGGCCAC | -0.29
CCATCCTA | 0.00436
ACTAGTGA | -0.0863
ATTAACCC | 0.237
TAGAATCA | -0.116
CTCCCTTA | -0.181
CCCATGTC | -0.0375
GCCCAAGC | -0.104
CACGGGAC | -0.0333
AATGCGAC | 0.1
GCTTGGAC | -0.137
AGTAGCGC | 0.022
GGTCGCCA | -0.227
CTAAATTA | 0.173
GCAGCCGC | -0.121
AAAACTTG | 0.19
CACTGTCC | -0.106
GTACTTTA | 0.0353
CCCAGCCG | -0.179
CTCTCCGC | -0.0619
CATTTGAA | 0.0768
AACTGATA | 0.0823
CTGCAACC | -0.244
CGTGCTGC | -0.144
AATAGATG | 0.193

Sequence | PBM E-score
GTTAGTTA | 0.262
ACACTCGA | -0.0986
GCCGAGCC | -0.0852
AGAGGCGG | -0.093
CTACCCGA | 0.0953
ATGACCGA | -0.0258
GGTACCAA | -0.137
ATTTTCTA | 0.264
AAAAGTTC | 0.373
CGGGCACC | -0.106
AAACTCTG | 0.0435
CCCTAGGC | -0.0718
GGACCTTA | -0.226
CGTACTAG | 0.0511
TAGTGAAA | 0.0868
AGGGTCGG | -0.164
CGGGTATA | 0.0469
AGAGCACT | 0.155
TATACCCA | -0.16
ATGCGTAA | 0.116
CCCTTGCG | -0.205
AGTGTATC | 0.0453
CGCAAGTC | -0.213
AGTCCCCG | -0.202
AGTGAGAT | 0.0696

Sequence | PBM E-score
AATTGATC | 0.354
CATAAGGG | -0.115
CCGCTGGC | -0.209
GAAACACC | 0.127
AGCCTATA | 0.0186
GCCCACTA | -0.0889
GGACCAGA | -0.0563
GGTCTAAA | 0.0775
CTCCACCA | -0.122
ACATACGG | -0.112
TAAGACCA | -0.00263
CGAGCTGC | -0.149
ACTTTCTA | 0.135
GAAACAAC | 0.0455
TACAGGGA | -0.116
AAGCGACC | 0.152
CGTCGGAC | -0.256
AGAACTGG | 0.158
GGGGGCTA | -0.364
